From PubChem BioAssay (NCATS)
Inconclusive results, whose numbers are uncertain, are shown with a selection of clear calls. For some assays here: Potencies of inconclusive entries are left out as doubtful fits. Calls of active or inactive are those of the source. The call rests on the fitted dose curve; in most records, active means well fitted curve in the direction sought with a large enough effect; inconclusive means small, poorly fitted or top-dose-only effect, or another doubt; inactive means no such curve, though single readings can be large; an effect the other way counts as inactive or inconclusive.

What was measured:
[1] = qHTS of pediatric cancer cell lines to identify multiple opportunities for drug repurposing: Primary screen for OHS-50 cells (AID 1347103); settings: OHS-50 osteosarcoma viability, CellTiter-Glo luminescence, 48 h; activity change, negative = cytotoxic: at 57.3 µM (top of the series); further: nearly all actives have a fitted effect of over 40% in size
Summary of the method: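 Cells (500-1,000/well) rested 5 h, then received compounds for 48 h; metabolically active cells were measured by CellTiter-Glo luminescence. Final concentrations spanned up to 46 µM (MIPE, 11-point) or 0.59 nM-46 µM (NPC, 8-point) in primary screens, 11-point in follow-ups.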

[2] = qHTS of pediatric cancer cell lines to identify multiple opportunities for drug repurposing: Primary screen for RD cells (AID 1347104); further: nearly all actives have a fitted effect of over 55% in size
Summary of the method: (§1)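 CRCs from 8- or 11-point titrations (lowest final 0.59 nM NPC, 0.78 nM MIPE). Cell viability: CellTiter-Glo after 48 h incubation, 15 min room-temperature development, luminescence imaging.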

[3] = qHTS of pediatric cancer cell lines to identify multiple opportunities for drug repurposing: Primary screen for MG 63 (6-TG R) cells (AID 1347105); settings: MG 63 (6-TG R) viability, CellTiter-Glo, 48 h; activity change, negative = cytotoxic: at 46 µM (top of the series) unless noted; further: nearly all actives have a fitted effect of over 50% in size
Summary of the method: as §1

[4] = qHTS of pediatric cancer cell lines to identify multiple opportunities for drug repurposing: Primary screen for Rh30 cells (AID 1347107); further: nearly all actives have a fitted effect of over 75% in size
Summary of the method: (§2)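 Viability after 48 h compound treatment at 37C, 500-1,000 cells/well, read as ATP luminescence with CellTiter-Glo. Primary screens used 11-point (MIPE, 0.78 nM-46 µM) or 8-point (NPC, 0.59 nM-46 µM) final concentrations; follow-up screens used 11-point dilutions.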

[5] = qHTS of pediatric cancer cell lines to identify multiple opportunities for drug repurposing: Primary screen for control Hh wild type fibroblast cells (AID 1347106); further: nearly all actives have a fitted effect of over 55% in size
Summary of the method: as §2

[6] = qHTS of pediatric cancer cell lines to identify multiple opportunities for drug repurposing: Primary screen for Rh41 cells (AID 1347108); further: nearly all actives have a fitted effect of over 70% in size
Summary of the method: as §1

[7] = qHTS of pediatric cancer cell lines to identify multiple opportunities for drug repurposing: Confirmatory screen for BT-12 cells (AID 1347112); further: nearly all actives have a fitted effect of over 55% in size
Summary of the method: as §2

[8] = qHTS of pediatric cancer cell lines to identify multiple opportunities for drug repurposing: Confirmatory screen for A673 cells (AID 1347110);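 further: cells exposed to compound for 48 h before the viability read; nearly all actives have a fitted effect of over 65% in size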
Summary of the method: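 Viability was read as ATP luminescence (CellTiter-Glo) after 48 h of compound exposure at 37 C in A673 cells seeded at 500-1,000/well. Titrations reached 46 uM final, with 11 points in the confirmatory screen. Concentration-response curves were fitted directly.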
Potency means the concentration at half of the fitted maximal effect; tags describe the fitted curve by direction and shape.

CN1C(=O)CN=C(c2ccccc2)c2cc(Cl)ccc21
Potency [1]: inconclusive [cytotoxic, single point]

Nc1ccc(N=Nc2ccccc2)cc1
Potency [1]: inconclusive [cytotoxic, partial curve] | Potency [2]: inconclusive [cytotoxic, partial curve] | Potency [3]: inconclusive [cytotoxic, partial curve, poor fit] | Potency [4]: inconclusive [cytotoxic, partial curve, poor fit]

CN1C[C@@H](NS(=O)(=O)N(C)C)C[C@@H]2c3cccc4c3c(cn4C)C[C@H]21
Potency [1]: inconclusive [cytotoxic, full curve, poor fit]

C[C@]12CC[C@H]3[C@@H](CCC4=CC(=O)CC[C@@H]43)[C@@H]1CC[C@@H]2OC(=O)CCC1CCCCC1
Potency [1]: inconclusive [cytotoxic, single point] | Potency [2]: inactive

O=C(CCCN1CCC2(CC1)C(=O)NCN2c1ccccc1)c1ccc(F)cc1
Potency [1]: inconclusive [cytotoxic, partial curve, poor fit]

C[C@@H]1O[C@@H](O[C@@H]2C=C3CC[C@@H]4[C@H](CC[C@]5(C)[C@@H](c6ccc(=O)oc6)CC[C@]45O)[C@@]3(C)CC2)[C@H](O)[C@H](O)[C@H]1O
Potency [1]: active: 0.0025 µM | Potency [2]: active: 0.0015 µM | Potency [3]: active: 0.0017 µM | Potency [5]: active: 0.0075 µM | Potency [6]: inconclusive [cytotoxic, full curve] | Potency [7]: active: 0.0414 µM

CN1C2CCC(C)(C)C1CC(OC(=O)C(O)(c1cccs1)c1cccs1)C2 (stereo not given)
Potency [1]: inconclusive [cytotoxic, single point] | Potency [2]: inactive

CC1=C(O)C(=O)C=C2C1=CC=C1[C@@]2(C)CC[C@@]2(C)[C@@H]3C[C@](C)(C(=O)O)CC[C@]3(C)CC[C@]12C
Potency [1]: active: 2.43 µM | Potency [2]: active: 1.32 µM | Potency [3]: active: 0.935 µM | Potency [5]: inconclusive [cytotoxic, single point] | Potency [4]: active: 4.69 µM | Potency [8]: active: 1.31 µM

COC1=C[C@@H]2[C@@H]3Cc4ccc(OC)c(O)c4[C@]2(CCN3C)CC1=O
Potency [1]: inactive | Potency [2]: inconclusive [cytotoxic, full curve] | Potency [3]: inconclusive [cytotoxic, partial curve, poor fit] | Potency [5]: inconclusive [cytotoxic, full curve, poor fit] | Potency [4]: inconclusive [cytotoxic, full curve]

Cc1cccc(Cc2cnc[nH]2)c1C
Potency [1]: inconclusive [cytotoxic, partial curve] | Potency [2]: inactive | Potency [3]: inactive

CC(N[C@H]1C[C@H]1c1ccccc1)c1ccc2c(c1)OCCO2 (stereo not given in full)
Potency [1]: inactive | Potency [2]: inactive | Potency [3]: inactive | Potency [4]: inactive

CN1CCC(N(Cc2ccccc2)c2ccccc2)CC1
Potency [1]: inconclusive [cytotoxic, partial curve] | Potency [2]: inconclusive [cytotoxic, single point]

CC1=NN=C(c2ccc(N)cc2)c2cc3c(cc2C1)OCO3
Potency [1]: inactive | Potency [2]: inactive

CC(=O)[C@H]1CC[C@H]2[C@@H]3CC[C@H]4C[C@](C)(O)CC[C@]4(C)[C@H]3CC[C@]12C
Potency [1]: inactive

CC(C)=CCN1CC[C@@]2(C)c3cc(O)ccc3C[C@@H]1[C@@H]2C
Potency [1]: inconclusive [cytotoxic, partial curve, poor fit] | Potency [2]: inconclusive [cytotoxic, partial curve]

O=S(=O)(c1ccc(Cl)cc1)c1ccc(Cl)cc1
Potency [1]: inconclusive [cytotoxic, partial curve, poor fit]

C=CC(=O)NCNC(=O)C=C
Potency [1]: inactive | Potency [2]: inactive

CN(C)CCN(C)CCc1ccc(Cl)c(Cl)c1
Potency [1]: inconclusive [cytotoxic, single point] | Potency [2]: inconclusive [cytotoxic, partial curve, poor fit]

CSCC[C@@H](NC(=O)[C@@H](Cc1ccccc1)NC(=O)CNC(=O)CNC(=O)[C@@H](N)Cc1ccc(O)cc1)C(=O)O
Potency [1]: inactive

COc1cc(C[C@@H](C)N)c(OC)cc1Br
Potency [1]: inconclusive [cytotoxic, partial curve, poor fit] | Potency [2]: inconclusive [cytotoxic, partial curve, poor fit]
